44 sequences from the supplement of paper PMC11417369 can be followed below.

± gives the standard deviation of the averaged measurements. This is one part of the list.

The subject of this assay is PfAP2-G AP2 domain (GST-tagged). In words: gcPBM binding intensity (ln(normalized median fluorescence intensity)); higher = stronger DNA binding. The method in brief: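 Using an Agilent 4 × 180k array, primer-extended double-stranded 36-bp intergenic genomic probes and negative controls were exposed for 1 h to GST-fused P. falciparum DNA-binding domains expressed in E. coli. Binding was carried out in 1× PBS with 1% milk, 0.2 mg/ml BSA, 0.5% salmon testes DNA and 0.03% Triton X-100, and protein was detected with Alexa488 anti-GST antibody and a 488 nm scan. Binding intensity is the highest Masliner-normalised natural-log median intensity across replicate spots of either probe orientation.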
On to “AACCACATACATATAACACACATATACAATCTATAT [CACACA_site1987]”, for which the “gcPBM binding intensity (ln)” value was determined as 10.1 ± 0.13.

For the sequence “AAATAACACTAATGATGTACTCAACTATTTATAATT [XGTACX_site8183]”, the “gcPBM binding intensity (ln)” value was 11.2 ± 0.79. For the sequence “AAAAAAAGTAAATGTTGTACTATAATATGTAATATA [XGTACX_site7966]”, the “gcPBM binding intensity (ln)” value amounted to 10.9 ± 0.46.

As for “TATATGATATAATATACACACATACAGATATATATA [CACACA_site4440]”, the “gcPBM binding intensity (ln)” value worked out at 9.84 ± 0.071. The same measure for “AAATTATTAAGTGATATAATATTCTATAGATGGGGA [CACACA_negctrl_site168]”: 9.84 ± 0.099; for “TTTTCCAATTTAAAAGCATGCATCTGTTTTTTTTTT [TGCATGCA_site482]”: 9.53 ± 0.19; for “AGAGGTAGAGAGAAAACATGCATAATGATTTTCATA [TGCATGCA_site958]”: 9.6 ± 0.23. Consider “TAGAGGTATAAAATATGTACTTATAAAAACATGAAT [XGTACX_site8916]”, for which the “gcPBM binding intensity (ln)” value is 11.4 ± 0.73. “TAAATCAAAATAATTTAACACACAATTTTAATACTG [CACACA_site8744]”: the “gcPBM binding intensity (ln)” value came to 9.715 ± 0.049. Consider “GATAAGGTATTCAAATGTACAAAATGTTTTATATAA [XGTACX_site6863]”, for which the “gcPBM binding intensity (ln)” value was 10.7 ± 0.21. As for “TTTTTATAACTATATTATATAACTTTTGTACGAACT [CACACA_negctrl_site1423]”, the “gcPBM binding intensity (ln)” value was determined as 10.7 ± 0.53. In the case of “ACATATAAATAAATAAATATATATATATATATATAT [GTGCAC_negctrl_site378]” it was 10.1 ± 0.76; in that of “TATTTACACCTAATCACAAATAAAATAAAATCAAAT [CACACA_negctrl_site531]”, 10.1 ± 0.18. Take “TATATATTTTGTGTCTGTACACATATTATTAATTCC [XGTACX_site7507]”: the “gcPBM binding intensity (ln)” value turned out to be 11.4 ± 1.

For “TTTTTTTATCAATGTTGTACTTTTTTTTTTTTCCAT [XGTACX_site8864]”, the “gcPBM binding intensity (ln)” value worked out at 11.6 ± 0.83.

For the sequence “TTCAAATATAAATACACACACATAGCTACAAAATAA [CACACA_site4172]”, the “gcPBM binding intensity (ln)” value amounted to 10.2 ± 0.2. Regarding “TATAAGAGAATATATACACACAAAAATATATACAGT [CACACA_site1668]”, the “gcPBM binding intensity (ln)” value was 10.1. With “TACACGCATGGACACACACACACACCCATATATATA [CACACA_site4522]”, the “gcPBM binding intensity (ln)” value came out at 11 ± 0.6. As to ATATATATTATATAAGTGCATAATATTCTTTCTTTT, the “gcPBM binding intensity (ln)” value is 9.765 ± 0.078. In the case of “TTTTTCATTTCTGCATTTATTTATAAATAAATATTT [CACACA_negctrl_site368]” it was 10.06 ± 0.042; in that of “TAAATACATAAATACACACACATATATTATATATAT [CACACA_site4310]”, 9.98 ± 0.12. The same measure for “ATATTAACTATCATAACACACACAGTAGACATATTT [CACACA_site6941]”: 10.2 ± 0.26; for “TATCATATATAAAGAGGTACGTAAGAATAGAAAATT [XGTACX_site798]”: 11.1 ± 0.38.

TTCTTAAAAGGAAAGGTGCAACTTTATCATTTTCTT: the “gcPBM binding intensity (ln)” value worked out at 9.82 ± 0.042. As for “GTATATAATTAAAGTTGTACCCTTAAAAAAGGGAAA [XGTACX_site7278]”, the “gcPBM binding intensity (ln)” value was 11.4 ± 0.91. For the sequence “GATAACTTTTTTCTCACACACAAATATTTTAATCAT [CACACA_site7685]”, the “gcPBM binding intensity (ln)” value stood at 10.1 ± 0.17.

As for “AAAAATAAAAAAATAAATACGTATACATATATAATA [TGCATGCA_negctrl_site551]”, the “gcPBM binding intensity (ln)” value amounted to 10.1 ± 0.11.

As to “GAACAAATTAAATAGGTGCATTAACATGTTCTATTT [GTGCAC_site9729]”, the “gcPBM binding intensity (ln)” value came to 9.955 ± 0.021. With “TCTGTATATTATTCAAGTACACAATATAAATATAAA [XGTACX_site7241]”, the “gcPBM binding intensity (ln)” value turned out to be 11.4 ± 0.82. The same measure for “TATTGTTTTTTTTACTGTACACAAGTAAATGAAAAA [XGTACX_site790]”: 11.6 ± 1.3.

On to “AAAAAATTCAAAAGGTGTACAACATTATATTATTCC [XGTACX_site5118]”, for which the “gcPBM binding intensity (ln)” value came to 11.6 ± 0.78. The same measure for “TTATATATAAGTTTATTCATTTTTTTTTTTTTTTTT [XGTACX_negctrl_site573]”: 9.995 ± 0.007. The same measure for “TAAATAAAAAAGAATACACACAGCATGCATAAATAT [CACACA_site237]”: 10 ± 0.028; for “CATATATATCGTAATGCACACATGTAATTTCATAAT [CACACA_site811]”: 10.18 ± 0.042.

On to “TATAATTATATGTATACACACACATACATTTACATA [CACACA_site9061]”, for which the “gcPBM binding intensity (ln)” value was found to be 10.5 ± 0.53.

Turning to “AAAATGAAAATGAAAATGAAAATGGGAAAATGTCAA [TGCATGCA_negctrl_site488]”, the “gcPBM binding intensity (ln)” value came to 9.98 ± 0.028. “TCTTATATGATATTTATTTATTTATTTATTTATTCA [GTGCAC_negctrl_site686]”: the “gcPBM binding intensity (ln)” value turned out to be 9.52 ± 0.19.

For “TAACACCAAACTAAATGTACACACATACATAAATAT [XGTACX_site2201]”, the “gcPBM binding intensity (ln)” value was 11.2 ± 0.79.

For “AATAGTAATTTGAATACACACAATAATATATTTATA [CACACA_site7055]”, the “gcPBM binding intensity (ln)” value was found to be 9.96 ± 0.042.

For “TAAATGTGAACAATAGAAGTAATAAGAAGAATAAAA [CACACA_negctrl_site1080]”, the “gcPBM binding intensity (ln)” value is 10.03 ± 0.021.

Consider “TTTATTTTTTGTGGCACACAGAAGAAACAAGAACAA [CACACA_site1696]”, for which the “gcPBM binding intensity (ln)” value turned out to be 10.8 ± 0.59. In the case of “AATGAATAATTATTTTGTACATAATATTATATTTAT [XGTACX_site5350]” it was 10.7 ± 0.35; in that of “AAATTAAATGTAAGCACACATAAATTATACTCATAT [CACACA_site5782]”, 10.02 ± 0.085.

On to “ACTTATACAAAATGTGCATGTTATATTTACAATAAT [TGCATGCA_site108]”, for which the “gcPBM binding intensity (ln)” value was 10 ± 0.11.
